Measured values: ChEMBL document CHEMBL1240510, “Synthesis, stereochemical separation, and biological evaluation of selective inhibitors of human MAO-B: 1-(4-arylthiazol-2-yl)-2-(3-methylcyclohexylidene)hydrazines” (J Med Chem, 2010)

These compounds were tested against T1, Amine oxidase [flavin-containing] A (Homo sapiens, UniProt P21397) (assay: biochemical).
T1 sequence (P21397 whole entry): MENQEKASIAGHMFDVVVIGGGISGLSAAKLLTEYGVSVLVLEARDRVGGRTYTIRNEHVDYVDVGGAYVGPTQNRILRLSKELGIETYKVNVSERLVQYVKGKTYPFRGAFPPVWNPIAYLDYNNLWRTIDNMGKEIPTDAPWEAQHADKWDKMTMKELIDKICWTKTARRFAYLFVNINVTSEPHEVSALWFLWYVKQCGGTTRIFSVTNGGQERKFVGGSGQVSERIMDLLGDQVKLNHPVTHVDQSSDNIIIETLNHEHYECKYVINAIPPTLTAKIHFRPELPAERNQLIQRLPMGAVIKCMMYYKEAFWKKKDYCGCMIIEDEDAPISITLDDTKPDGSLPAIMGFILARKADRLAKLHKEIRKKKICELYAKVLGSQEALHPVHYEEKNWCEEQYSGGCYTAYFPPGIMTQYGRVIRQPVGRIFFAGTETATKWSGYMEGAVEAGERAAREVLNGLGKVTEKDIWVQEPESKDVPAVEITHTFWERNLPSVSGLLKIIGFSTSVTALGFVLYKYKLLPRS
Type: cell-based, BTI-TN-5B1-4
C[C@H]1CCC/C(=N/Nc2nc(-c3ccc(C#N)cc3)cs2)C1 showed an IC50 of 17100 nM.

The compounds below were run against T2, Amine oxidase [flavin-containing] B (Homo sapiens, UniProt P27338) (assay: biochemical).
T2 sequence (P27338 whole entry): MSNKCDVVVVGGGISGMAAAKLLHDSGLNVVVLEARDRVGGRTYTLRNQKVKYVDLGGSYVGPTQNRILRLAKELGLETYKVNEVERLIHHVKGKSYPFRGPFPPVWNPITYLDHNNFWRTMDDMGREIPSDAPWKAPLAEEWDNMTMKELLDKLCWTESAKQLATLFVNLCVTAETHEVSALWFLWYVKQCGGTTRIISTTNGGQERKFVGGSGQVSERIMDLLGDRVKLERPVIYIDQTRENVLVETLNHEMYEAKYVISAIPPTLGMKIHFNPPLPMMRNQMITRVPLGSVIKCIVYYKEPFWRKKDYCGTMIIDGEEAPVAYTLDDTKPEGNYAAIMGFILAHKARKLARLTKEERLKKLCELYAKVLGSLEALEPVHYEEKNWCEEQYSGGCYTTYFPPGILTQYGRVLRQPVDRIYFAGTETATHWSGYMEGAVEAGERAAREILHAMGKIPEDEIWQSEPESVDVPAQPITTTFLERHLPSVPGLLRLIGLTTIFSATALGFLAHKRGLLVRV
CC1CCC/C(=N/Nc2nc(-c3ccccc3)cs2)C1 (centres undefined) gave an IC50 of 2230 nM.
With C[C@@H]1CCC/C(=N/Nc2nc(-c3ccccc3)cs2)C1 the IC50 was 810 nM.
Compound C[C@@H]1CCC/C(=N/Nc2nc(-c3ccc(Cl)cc3Cl)cs2)C1 has an IC50 of 3680 nM.
COc1ccc(-c2csc(N/N=C3/CCC[C@@H](C)C3)n2)cc1 showed an IC50 of 3120 nM.
Work on CC1CCC/C(=N/Nc2nc(-c3ccc([N+](=O)[O-])cc3)cs2)C1 (centres undefined) yielded an IC50 of 410 nM.
In the case of C[C@@H]1CCC/C(=N/Nc2nc(-c3ccc([N+](=O)[O-])cc3)cs2)C1, the IC50 is reported as 86 nM.
C[C@H]1CCC/C(=N/Nc2nc(-c3ccc([N+](=O)[O-])cc3)cs2)C1 showed an IC50 of 210 nM.
CC1CCC/C(=N/Nc2nc(-c3ccc(C#N)cc3)cs2)C1 (centres undefined) gave an IC50 of 120 nM.
C[C@@H]1CCC/C(=N/Nc2nc(-c3ccc(C#N)cc3)cs2)C1 showed an IC50 of 230 nM.
C[C@H]1CCC/C(=N/Nc2nc(-c3ccc(C#N)cc3)cs2)C1 was tested, and the IC50 was 420 nM.
In the case of CC1CCC/C(=N/Nc2nc(-c3ccc(Cl)cc3)cs2)C1 (centres undefined), the IC50 is reported as 21900 nM.
Compound C[C@@H]1CCC/C(=N/Nc2nc(-c3ccc(Cl)cc3)cs2)C1 has an IC50 of 9550 nM.
For COc1ccc(-c2csc(N/N=C3/CCCC(C)C3)n2)cc1 (centres undefined), the IC50 was 4510 nM.
